Measurements taken from PubChem BioAssay AID488969 (Vanderbilt High Throughput Screening Facility, 2010).
Whole data set: some 110,000 compounds, median “z-score” near -0.1, cut for the highest 2% near 2. This is one part of the list. The source made the active and inactive calls.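 How the source made its calls: active means z-score in the third read window above 3 or below -3; inactive means the rest.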

Target: Metabotropic glutamate receptor 8 (Rattus norvegicus) (UniProt P70579)
Assay: rat mGluR8 modulators via GIRK flux, primary screen, cell-based, thallium flux, HTS (AID 488969)
Details: HEK293 rat mGluR8, GIRK (G protein-gated inwardly rectifying potassium channel) thallium flux, FluoZin2; at 10 µM; stronger effect = higher value; submaximal glutamate (EC20) added with thallium

Sequence of UniProt P70579 (P70579 whole entry, looked up): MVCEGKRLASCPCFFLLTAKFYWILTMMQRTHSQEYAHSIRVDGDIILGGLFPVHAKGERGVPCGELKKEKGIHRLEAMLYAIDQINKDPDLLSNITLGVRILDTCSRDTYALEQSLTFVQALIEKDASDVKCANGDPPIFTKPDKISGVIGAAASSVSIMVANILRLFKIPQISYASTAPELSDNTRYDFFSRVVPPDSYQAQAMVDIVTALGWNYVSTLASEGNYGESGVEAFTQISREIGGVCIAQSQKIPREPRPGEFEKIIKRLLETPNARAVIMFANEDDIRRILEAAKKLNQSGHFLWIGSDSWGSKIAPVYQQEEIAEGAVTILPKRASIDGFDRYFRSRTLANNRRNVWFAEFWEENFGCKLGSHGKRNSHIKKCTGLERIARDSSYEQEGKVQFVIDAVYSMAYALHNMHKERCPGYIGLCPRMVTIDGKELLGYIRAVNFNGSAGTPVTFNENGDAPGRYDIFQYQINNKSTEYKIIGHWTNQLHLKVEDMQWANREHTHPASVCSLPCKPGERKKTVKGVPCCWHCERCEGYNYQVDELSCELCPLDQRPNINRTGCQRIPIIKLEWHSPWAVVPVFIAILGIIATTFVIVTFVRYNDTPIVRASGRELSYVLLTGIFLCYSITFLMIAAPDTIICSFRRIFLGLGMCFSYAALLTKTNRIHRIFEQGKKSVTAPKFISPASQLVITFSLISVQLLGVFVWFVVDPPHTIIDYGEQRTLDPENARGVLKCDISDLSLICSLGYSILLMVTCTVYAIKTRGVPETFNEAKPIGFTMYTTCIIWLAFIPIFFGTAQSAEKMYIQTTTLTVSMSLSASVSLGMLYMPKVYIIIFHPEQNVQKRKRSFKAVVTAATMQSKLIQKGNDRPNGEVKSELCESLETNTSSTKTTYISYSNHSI

Compound	z-score
O=S(=O)(c1ccc(Cl)c(F)c1)N1CCC(c2nc(-c3ccncc3)no2)CC1	active: 8.06
Cc1ccc(C(=O)c2sc(Nc3ccccc3)c(C#N)c2N)cc1	-0.0679
COc1cccc(CN(C)CC(=O)Nc2cccc(S(N)(=O)=O)c2)c1OC	-0.161
CCC1(C)Cc2c(sc(NC(=O)CCC(=O)O)c2C#N)CO1 (stereo not drawn)	0.209
CCOc1cc(/C=C(/C#N)c2nc3ccccc3[nH]2)ccc1OCc1ccc(C(=O)O)o1	-1.53
COc1cccc(-c2nc(CS(=O)CC(=O)NCc3ccc4c(c3)OCO4)c(C)o2)c1 (stereo not drawn)	-0.186
O=C(COC(=O)/C=C/c1ccco1)Nc1ncc(C(F)(F)F)cc1Cl	0.175
Cc1ccc(C(C[N+](=O)[O-])n2nc(C)cc2C)cc1 (stereo not drawn)	-0.281
COc1ccc(Cl)cc1NC(=O)c1ocnc1C	0.118
C=CCn1c(SCc2c(C)noc2C)nnc1C1COc2ccccc2O1 (stereo not drawn)	-0.176
Cc1ccc(S(=O)(=O)Nc2cc(C)c(O)c(S(=O)(=O)c3ccc(C)cc3)c2)cc1	-0.674
CCN(CC)S(=O)(=O)c1cccc(C(=O)NC(C(=O)NC2=NCCS2)C(C)C)c1 (stereo not drawn)	0.126
COc1cccc(-n2nnc3c(=O)n(CC(=O)N4CCCc5ccccc54)cnc32)c1	-0.135
Cc1cc(N2CCN(c3ccccn3)CC2)n2cc(-c3ccccc3)nc2n1	-0.53
CCOC(=O)Cc1csc(NC(=O)CSc2cc(Cl)ccc2Cl)n1	-0.0845
CCN(C(=O)c1cn(C)c(=O)c2cc(OC)c(OC)cc12)c1cc(C)ccc1C	-0.677
CN(CCOc1ccc(-c2ccn(S(=O)(=O)c3c(Cl)cccc3Cl)n2)cc1)c1ccccn1	0.941
O=C1CC(c2ccccc2)Cc2nc(N3CCc4ccccc43)ncc21 (stereo not drawn)	0.33
O=C(NCCc1ccncc1)Nc1ccccc1Cl	0.492
CCOC(=O)N1CCC(=NNC(=O)COc2ccc(OC)cc2)CC1	-0.245
COc1ccc(NC(=O)N2CCN(c3nc(-c4cccc(OC)c4)cs3)CC2)cc1	-0.31
COC(=O)c1ccc(OCC(O)CN(CCO)CC(O)Cn2ccc3ccccc32)cc1 (stereo not drawn)	0.0525
CNC(=O)c1ccccc1S(=O)(=O)c1ccccc1C#N	-0.166
O=C(Nc1cc(Cl)ccc1O)C1CCCO1 (stereo not drawn)	0.609
O=C(Nc1cccc(O)c1)c1noc2c1CCCCC2	-0.322

Compound	z-score
Cc1ccc(/C=N/NC(=S)NC2CCS(=O)(=O)C2)cc1 (stereo not drawn)	0.00866
CC1CCN(S(=O)(=O)c2ccc(Br)s2)CC1	-0.167
COC(=O)c1ccc(Cl)c(NC(=O)CN2CCOCC2)c1	0.185
O=C(NCCCn1ccnc1)c1ccco1	0.0341
CC1CCCC(C)N1C(=O)CSc1nnc(COc2ccccc2)n1-c1ccccc1 (stereo not drawn)	-0.853
Cc1nnc(NC(=O)Cn2c(=O)sc3ccccc32)s1	-0.315
CN(Cc1ccccc1)C(=O)c1ccccc1NC(=O)c1ccccc1	-0.212
CCOC(=O)C(C)(C)Sc1ncnc2nc[nH]c12	0.318
COCCNC(=O)COc1ccc(C)cc1C	-0.299
CCCCOP(=O)(OCCCC)C(O)c1ccc(Br)cc1 (stereo not drawn)	-0.269
O=C(COc1ccccc1)N(Cc1ccco1)c1ccc(O)cc1	-0.00725
COc1ccccc1C(=O)O/N=C(\N)c1ccccc1Cl	-0.407
CC1(C)Cc2nc3n[nH]c(N)c3cc2CO1	-0.0792
O=C(CSCc1ccc(Cl)cc1)Nc1ccc2c(c1)OCCO2	0.502
Cc1cc2c(NCC(C)O)ncnc2s1 (stereo not drawn)	0.45
COc1ccc(C(=O)Nc2ccc(S(=O)(=O)NC(C)C)cc2)cc1	-0.247
COC(=O)CC1=C(C(=O)OC)C(c2cc(OC)c(OC)cc2OC)C(C#N)=C(N)O1 (stereo not drawn)	-0.306
C/C(=N\NC(=O)c1cccc(Br)c1)c1cccc(NC(=O)c2ccc(C)o2)c1	-0.505
Brc1ccc(-c2cn3ccccc3n2)s1	-0.391
COC(=O)CC1SC(=O)NC1=Nc1cccc(C)c1 (stereo not drawn)	-0.064
CCOc1ccccc1C(=O)Nc1ccc(S(=O)(=O)N2CCOCC2)cc1	0.254
Cn1c(=O)cc(SCC(=O)Nc2cccnc2)c2ccccc21	0.331
O=C(COc1ccccc1-c1ccccc1)NCc1cccc(Cl)c1	-0.16
CC1CN(CCOc2ccc([N+](=O)[O-])cc2)CC(C)O1 (stereo not drawn)	-0.621
O=C(C1CC1)N1CCc2cc(S(=O)(=O)N3CCOCC3)ccc21	0.0843

Compound	z-score
O=C(Nc1ccc(Cl)cc1)N1CCc2[nH]c3ccccc3c2C1	-0.865
CCn1c(/C=N/c2nc3ccccc3n2C)nc2ccccc21	-0.0248
O=C(NC1=NCCS1)[C@H](Cc1ccccc1)N1C(=O)c2ccccc2C1=O	-0.192
COC(=O)c1sc(Nc2ccccc2)nc1C	-0.75
CC(C)C(=O)NCCCc1ccccc1	-0.344
CSc1nc(C)cc(SCC(=O)N/N=C/c2ccccc2)n1	-0.421
COc1nc2c(s1)C(=O)NCCC2	-0.142
CCOc1ccccc1-n1c(=O)c2ccccc2c2ccccc2c1=O	-0.269
Cc1cc(C)c[n+](-c2nc3ccccc3nc2[N-]S(=O)(=O)c2ccc(Cl)cc2)c1	-0.0439
Cn1c(=O)c2c(nc(NC3CCCCC3)n2Cc2ccccc2)n(C)c1=O	-1.93
O=C1CC2C(CC(OC(=O)c3ccc(-c4ccccc4)cc3)C2CO)O1 (stereo not drawn)	-0.152
Nc1nnc(SCC(=O)OCc2ccccc2)s1	-0.0572
CCC(=O)c1cc(F)c(N2CCN(C(=O)Cc3ccccc3)CC2)cc1C	0.99
CCOc1ccc2[nH]c(=O)c(CN(CCc3ccccc3)C(=O)c3cnccn3)cc2c1	-0.596
c1cncc(-c2nc3cc4ccccc4cc3[nH]2)c1	-0.554
COCCNC(=O)c1ccc2c(=O)n(Cc3ccco3)c(SCC(=O)NC3CCCC3)nc2c1	-0.0789
CCCCn1c(=O)c(CCC(=O)OCC(=O)Nc2ccc(C)c(Cl)c2)nc2ccccc21	-0.0154
COc1ccccc1C1=Nn2c(nnc2C2CCCCC2)SC1	-1.07
CCCCCCCCCn1cc(C(C)=O)c(=O)[nH]c1=O	-0.428
COCCCNC(=O)c1cc2c(=O)n(C)c3ccccc3c2n1C	-0.127
CCN(CC)c1ccc2cc(C(=O)NNC(=O)c3ccc(S(=O)(=O)N4CCCCC4)cc3)c(=O)oc2c1	-2.06
COc1cc(/C=C/C(=O)O)cc(S(=O)(=O)N(C)CCO)c1OC	-0.279
C=CCSc1nc2c(c(=O)[nH]c(=O)n2C)n1CC	-0.0665
